The supplement of paper PMC3722116
Growth of fresh clinical P. falciparum isolates by hypoxanthine uptake over 42 h; for most isolates 1.6-1,647 nM mefloquine, 0.044-87 nM artesunate, 10-10,256 nM chloroquine, 2.4-236 nM lumefantrine. EC50, lower = more sensitive; slope from the same fit, higher = steeper. No active / inactive call. Fits with a coefficient of variation above 100% are not listed here; 15-28% of fits exceed 15%. Isolates are numbered anew.

Tests used:
[1] = compound: T1, CCCCN(CCCC)CC(O)c1cc(Cl)cc2c1-c1ccc(Cl)cc1/C2=C/c1ccc(Cl)cc1 [lumefantrine]
Procedure: (§1)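 Hypoxanthine uptake by fresh isolates, duplicate serial dilutions, 24 h of drug plus 18 h after the label; sigmoid fit per isolate.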

[2] = compound: T2, CCN(CC)CCCC(C)Nc1ccnc2cc(Cl)ccc12 [chloroquine]
Procedure: as §1

[3] = compound: T3, C[C@H]1[C@H](OC(=O)CCC(=O)O)O[C@@H]2O[C@@]3(C)CC[C@H]4[C@H](C)CC[C@@H]1[C@@]24OO3 [artesunate]
Procedure: as §1

[4] = compound: T4, OC(c1cc(C(F)(F)F)nc2c(C(F)(F)F)cccc12)C1CCCCN1 [mefloquine]
Procedure: as §1

[5] = compound: T1, lumefantrine; experiment: slope of the dose-response curve (dimensionless); higher = steeper concentration-effect curve
Procedure: as §1

[6] = compound: T2, chloroquine; experiment: as above
Procedure: as §1

[7] = compound: T3, artesunate; experiment: as above
Procedure: as §1

[8] = compound: T4, mefloquine; experiment: as above
Procedure: as §1

Test System	EC50 of parasite growth [1] [µg/mL]	EC50 of parasite growth [2] [µg/mL]	EC50 of parasite growth [3] [µg/mL]	EC50 of parasite growth [4] [µg/mL]	slope [5]	slope [6]	slope [7]	slope [8]
Plasmodium falciparum isolate 8 (pfmdr1 allele: 86N, 1042N, pfmdr1 copies: 1)	0.0115	0.108	0.00082	0.0106	2.11	4.27	2.66	1.61
Plasmodium falciparum isolate 408 (pfmdr1 allele: 86N, 1042N, pfmdr1 copies: 1)	0.0243	0.0374	0.000236	0.0355	1.57	3.68	2.79	3.85
Plasmodium falciparum isolate 312 (pfmdr1 allele: 86N, 1042N, pfmdr1 copies: 1)	0.033	0.133	0.000638	0.0342	2.7	3.48	7.57	2.95
Plasmodium falciparum isolate 229 (pfmdr1 allele: 86N, 1042N, pfmdr1 copies: 3)	0.00895	0.0428	0.000918	0.0214	2.26	4.28	10	2.49
Plasmodium falciparum isolate 237 (pfmdr1 allele: 86N, 1042N, pfmdr1 copies: 1)	0.00551	0.222	0.000278	0.0163	2.7	5.29	5.71	3.11
Plasmodium falciparum isolate 83 (pfmdr1 allele: 86N, 1042N, pfmdr1 copies: 2)	0.0552	0.315	0.000539	0.0237	3.2	2.89	3.11	2.05
Plasmodium falciparum isolate 321 (pfmdr1 allele: 86Y, pfmdr1 copies: 1)	0.0221	0.147	0.00169	0.00683	4.4	8.08	9.97	3.71
Plasmodium falciparum isolate 382 (pfmdr1 allele: 86N, 1042N, pfmdr1 copies: 1)	0.00459	0.327	0.000641	0.015	1.91	6.76	3.09	1.95
Plasmodium falciparum isolate 244 (pfmdr1 allele: 86N, 1042N, pfmdr1 copies: 1)	0.0149	0.121	0.00134	0.0329	2.18	3.43	5.55	3.56
Plasmodium falciparum isolate 224 (pfmdr1 allele: 86N, 1042N, pfmdr1 copies: 2)	0.0208	0.0838	0.00104	0.0108	2.91	4.03	4.54	3.7
Plasmodium falciparum isolate 476 (pfmdr1 allele: 86N, 1042N, pfmdr1 copies: 1)	0.0274	0.0839	0.00167	0.0386	2.61	9.22	9.93	3.2
Plasmodium falciparum isolate 367 (pfmdr1 allele: 86N, 1042N, pfmdr1 copies: 1)	0.0165	0.122	0.00218	0.0291	0.997	4.93	5.55	3.66
Plasmodium falciparum isolate 349 (pfmdr1 allele: 86N, 1042N, pfmdr1 copies: 2)	0.0261	0.12	0.00209	0.0691	2.15	3.79	6.33	3.66
Plasmodium falciparum isolate 309 (pfmdr1 allele: 86Y, pfmdr1 copies: 1)	0.0241	0.16	0.00155	0.0214	2.29	4.06	7.14	3.18
Plasmodium falciparum isolate 156 (pfmdr1 allele: 86N, 1042N, pfmdr1 copies: 2)	0.107	0.0496	0.000874	0.0818	3.13	2.28	8.58	3.52
Plasmodium falciparum isolate 346 (pfmdr1 allele: 86N, 1042N, pfmdr1 copies: 1)	0.0208	0.0293	0.00216	0.0241	2.02	5.19	8.56	3.08
Plasmodium falciparum isolate 362 (pfmdr1 allele: 86N, 1042N, pfmdr1 copies: 1)	0.0509	0.174	0.000987	0.0498	2.76	5.85	9.99	3.92
Plasmodium falciparum isolate 179 (pfmdr1 allele: 86N, 1042N, pfmdr1 copies: 1)	0.0086	0.0374	0.000489	0.013	2.41	2.84	2.96	2.55
Plasmodium falciparum isolate 409 (pfmdr1 allele: 86Y, pfmdr1 copies: 1)	0.0351	0.29	0.0012	0.0172	2.19	2.91	5.23	1.92
Plasmodium falciparum isolate 319 (pfmdr1 allele: 86N, 1042N, pfmdr1 copies: 1)	0.0222	0.14	0.000399	0.0133	2.42	2.36	3.34	2.23
Plasmodium falciparum isolate 315 (pfmdr1 allele: 86N, 1042N, pfmdr1 copies: 1)	0.02	0.0923	0.00259	0.0367	2.67	4.05	8.11	3.4

Test System	EC50 of parasite growth [1] [µg/mL]	EC50 of parasite growth [2] [µg/mL]	EC50 of parasite growth [3] [µg/mL]	EC50 of parasite growth [4] [µg/mL]	slope [5]	slope [6]	slope [7]	slope [8]
Plasmodium falciparum isolate 38 (pfmdr1 allele: 1042D, pfmdr1 copies: 1)	0.0153	0.206	0.000794	0.0413	1.72	4	6.87	2.68
Plasmodium falciparum isolate 364 (pfmdr1 allele: 86N, 1042N, pfmdr1 copies: 2)	0.0534	0.0701	0.000723	0.0944	3.2	2.57	5.43	5.16
Plasmodium falciparum isolate 41 (pfmdr1 allele: 86N, 1042N, pfmdr1 copies: 1)	0.00353	0.0792	0.00026	0.0116	2.05	2.79	3.95	1.66
Plasmodium falciparum isolate 94 (pfmdr1 allele: 86N, 1042N, pfmdr1 copies: 1)	0.0331	0.277	0.00138	0.042	1.71	4.5	5.56	3.19
Plasmodium falciparum isolate 49 (pfmdr1 allele: 86N, 1042N, pfmdr1 copies: 2)	0.0233	0.0911	0.000924	0.0518	3.5	3.79	6.69	3.72
Plasmodium falciparum isolate 203 (pfmdr1 allele: 86N, 1042N, pfmdr1 copies: 2)	0.013	0.0502	0.000574	0.0303	2.63	2.8	7.74	2.96
Plasmodium falciparum isolate 485 (pfmdr1 allele: 86N, 1042N, pfmdr1 copies: 1)	0.0095	0.11	0.000395	0.0103	2.42	3.66	5.28	2.58
Plasmodium falciparum isolate 369 (pfmdr1 allele: 86N, 1042N, pfmdr1 copies: 1)	0.00229	0.0554	0.000214	0.00513	1.33	2.44	2.34	2.86
Plasmodium falciparum isolate 438 (pfmdr1 allele: 1042D, pfmdr1 copies: 1)	0.00902	0.118	0.000404	0.0165	2.75	4.8	4.52	2.85
Plasmodium falciparum isolate 472 (pfmdr1 allele: 86N, 1042N, pfmdr1 copies: 2)	0.0425	0.112	0.000579	0.0661	2.87	2.6	9.99	3.07
Plasmodium falciparum isolate 77 (pfmdr1 allele: 86N, 1042N, pfmdr1 copies: 2)	0.0362	0.112	0.000298	0.019	3.72	2.96	5.32	2.51
Plasmodium falciparum isolate 64 (pfmdr1 allele: 86N, 1042N, pfmdr1 copies: 3)	0.04	0.114	0.00103	0.0484	2.73	2.86	2.93	2.94
Plasmodium falciparum isolate 361 (pfmdr1 allele: 86N, 1042N, pfmdr1 copies: 2)	0.0248	0.0805	0.000717	0.0733	1.75	2.55	7.63	2.59
Plasmodium falciparum isolate 279 (pfmdr1 allele: 86N, 1042N, pfmdr1 copies: 2)	0.0331	0.119	0.00107	0.0857	1.58	2.8	5.25	2.01
Plasmodium falciparum isolate 421 (pfmdr1 allele: 86N, 1042N, pfmdr1 copies: 1)	0.0398	0.183	0.000511	0.0407	2.33	5.8	9.96	3.33
Plasmodium falciparum isolate 453 (pfmdr1 allele: 86N, 1042N, pfmdr1 copies: 1)	0.0101	0.0551	0.00039	0.00985	2.32	3.64	4.06	2.32
Plasmodium falciparum isolate 125 (pfmdr1 allele: 86N, 1042N, pfmdr1 copies: 1)	0.0183	0.149	0.000377	0.0249	2.25	2.49	5.12	2.21
Plasmodium falciparum isolate 285 (pfmdr1 allele: 86N, 1042N, pfmdr1 copies: 1)	0.0208	0.0583	0.00127	0.0342	3.19	3.59	4.35	3.38
Plasmodium falciparum isolate 350 (pfmdr1 allele: 86N, 1042N, pfmdr1 copies: 1)	0.00705	0.187	0.00238	0.014	2.64	6.27	3.69	1.86
Plasmodium falciparum isolate 48 (pfmdr1 allele: 86N, 1042N, pfmdr1 copies: 1)	0.018	0.205	0.000577	0.0198	1.72	4.8	4.59	2.12
